In all, about 310,000 compounds went through this assay and about 14,000 (4.5%) showed an effect of 50% or more. The effect is printed as a negative number. Some of the results follow.
Biological target: human ether-à-go-go-related gene (hERG) potassium channel (human, UniProt Q12809)
Experiment: primary screen, population patch clamp on CHO cells stably expressing hERG
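Further: peak tail current of the secondary pulse compared with the same well before compound.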

human ether-à-go-go-related gene (hERG) potassium channel, sequence (Q12809 whole entry, looked up): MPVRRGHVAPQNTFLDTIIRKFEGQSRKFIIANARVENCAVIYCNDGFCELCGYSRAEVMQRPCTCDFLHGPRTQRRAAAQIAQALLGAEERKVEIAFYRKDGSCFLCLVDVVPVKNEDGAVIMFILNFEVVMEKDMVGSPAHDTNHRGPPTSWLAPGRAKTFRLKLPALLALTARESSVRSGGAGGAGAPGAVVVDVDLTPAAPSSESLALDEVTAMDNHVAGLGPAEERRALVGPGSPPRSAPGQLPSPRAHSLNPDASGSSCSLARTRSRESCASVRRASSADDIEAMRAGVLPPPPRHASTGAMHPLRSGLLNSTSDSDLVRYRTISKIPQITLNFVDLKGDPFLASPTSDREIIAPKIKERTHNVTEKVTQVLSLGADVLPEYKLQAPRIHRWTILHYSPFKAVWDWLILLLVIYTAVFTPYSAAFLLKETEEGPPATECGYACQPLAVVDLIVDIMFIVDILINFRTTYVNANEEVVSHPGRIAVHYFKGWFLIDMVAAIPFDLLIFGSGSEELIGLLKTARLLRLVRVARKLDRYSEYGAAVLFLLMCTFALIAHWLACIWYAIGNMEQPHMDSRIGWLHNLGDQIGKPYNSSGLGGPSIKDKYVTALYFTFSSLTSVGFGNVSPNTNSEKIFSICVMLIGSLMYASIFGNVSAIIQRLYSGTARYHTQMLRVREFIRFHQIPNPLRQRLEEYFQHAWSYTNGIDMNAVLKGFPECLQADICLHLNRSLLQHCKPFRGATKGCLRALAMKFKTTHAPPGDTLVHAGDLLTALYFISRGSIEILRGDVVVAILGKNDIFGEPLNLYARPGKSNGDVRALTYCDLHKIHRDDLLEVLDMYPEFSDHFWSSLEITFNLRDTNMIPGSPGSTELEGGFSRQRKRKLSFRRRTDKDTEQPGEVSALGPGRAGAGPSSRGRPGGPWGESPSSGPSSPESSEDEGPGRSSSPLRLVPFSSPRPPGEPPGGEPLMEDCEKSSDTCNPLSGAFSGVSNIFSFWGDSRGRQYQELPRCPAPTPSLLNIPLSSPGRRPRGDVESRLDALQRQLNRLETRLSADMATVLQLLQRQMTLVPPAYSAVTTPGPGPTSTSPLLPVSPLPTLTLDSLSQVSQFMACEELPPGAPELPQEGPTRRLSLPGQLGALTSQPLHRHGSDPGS

Row | Structure (SMILES) | hERG current change (%, negative = inhibition) at 10uM [%]
1 | CC(C)(CNC(=O)c1cccc(S(=O)(=O)Nc2ccc(Br)cc2)c1)N1CCOCC1 | -41.1
2 | Clc1ccc(C(CCN2CCCC2)Cc2ccccc2)cc1 (centres unmarked) | -62.7
3 | Cc1ccc(CN=C(Nc2ccccc2)NC2CCCCC2)cc1 | -24.5
4 | COc1ccc(OC)c(CCNC(=O)c2cccc(NC(=O)C3=C(C)OCCS3)c2)c1 | 2.32
5 | CCc1cc(C)cc(OCCNC(=O)c2cncc(Br)c2)c1 | -23.5
6 | COCCCNC(=O)Cn1c(=O)n(CCCCCC(=O)NCc2ccc3c(c2)OCO3)c(=O)c2sccc21 | -7.87
7 | COc1cc(/C=N/NC(=O)c2ccc(COc3cc(C)ccc3C(C)C)cc2)cc(OC)c1O | -0.207
8 | COC(=O)C(O)(CC(=O)Nc1ccc(Cl)cc1F)C(F)(F)F (centres unmarked) | 10.2
9 | O=C(Cc1cccc(C(F)(F)F)c1)NCC(=O)Nc1cc(Cl)ccc1Cl | 6.94
10 | Cc1csc(NC(=O)CCCC(=O)O)c1-c1nc2ccccc2s1 | -10.2
11 | COc1ccc2[nH]c(=O)c(CN(CC3CCCO3)C(=S)Nc3ccc(C)cc3)cc2c1 (centres unmarked) | -16.5
12 | O=C1CN(C(=O)c2cc3ccccc3oc2=O)C(c2ccc(F)cc2)c2cc(Br)ccc2N1 (centres unmarked) | -68.6
13 | O=C1NC(=S)N/C1=C\C=C\c1ccccc1 | 5.8
14 | CCCC(=O)NC(=S)Nc1cccc(Cl)c1N1CCCC1 | 16.3
15 | COc1ccc(N2CCN(S(=O)(=O)c3cn(C)cn3)CC2)cc1 | -1.47
16 | CCOc1ccccc1N(CC(=O)NC1CCCC1)C(=O)CCC(=O)Nc1cc(C)on1 | 0.413
17 | Cc1ccc(NC2CCCN(C(=O)c3cccc(-c4ncc[nH]4)c3)C2)cc1C (centres unmarked) | 3.23
18 | O=C1Nc2ccccc2/C1=N\c1sc2c(c1C(=O)Nc1ccccc1)CCCC2 | -18.1
19 | CC1CCN(C(=O)C2CCN(S(=O)(=O)c3ccc(-n4cnnn4)cc3)CC2)CC1 | -13.7
20 | Cc1ccc(S(=O)(=O)Cn2nnnc2CN(Cc2ccco2)Cc2cccs2)cc1 | 7.95
21 | Cc1ccc(-c2nnc(NC(=O)c3ccco3)o2)c(C)c1 | 6.75
22 | CN(C(=O)c1ccccc1OCc1ccc(Cl)cc1)c1ccccc1 | -7.03

Row | Structure (SMILES) | hERG current change (%, negative = inhibition) at 10uM [%]
23 | CCN(CC(=O)Nc1ccc(N2CCOCC2)cc1)Cc1nc2ccccc2c(=O)[nH]1 | -12.8
24 | C=CCc1ccccc1OCCn1ccnc1 | -8.89
25 | COC(=O)c1sccc1S(=O)(=O)Nc1ccc(S(N)(=O)=O)cc1 | -10.3
26 | N#Cc1ccc(-c2nc3ccccc3nc2-c2ccccc2)cc1C#N | 21.7
27 | COC(=O)[C@@H]1C[C@@]2(Br)c3ccccc3N(S(=O)(=O)c3ccccc3)[C@H]2N1C(=O)OC | -5.99
28 | CN(C)S(=O)(=O)c1cccc(C(=O)NCCOC(=O)c2cc(F)c(F)cc2Cl)c1 | -25.7
29 | COc1ccccc1N(C)S(=O)(=O)c1ccc(C)c(C(=O)Nc2nccs2)c1 | -7.03
30 | Cc1[nH]c(=O)c(C#N)c2c1CCCC2 | -4.65
31 | CCOc1ccc(N2C(=O)CC(NC3CCN(C(=O)c4cccs4)CC3)C2=O)cc1 (centres unmarked) | -24.7
32 | CCc1cc(C(=O)N2CCCC(CCC(=O)N3CCN(c4ccccn4)CC3)C2)no1 (centres unmarked) | -17.4
33 | CCCNC(=O)c1ccc2c(=O)c(O)c(C)[nH]c2c1 | -15.1
34 | COC(=O)c1cc(NC(=O)CN2CCOCC2)cc(C(=O)OC)c1 | 23.6
35 | COc1ccc(-n2c(C)cc(C(=O)NC3CCCCC3)c2C)cc1 | -5.56
36 | CCn1c(CSc2nc(C)cc(C)n2)nnc1SCC(=O)N1CCCc2ccccc21 | -3.53
37 | CNC(=O)Cn1nc(-c2ccc(Cl)cc2)c2ccccc2c1=O | 19.1
38 | Cc1c(CN(C)Cc2cn(C)nc2-c2ccccc2F)[nH]c2ccccc12 | -6.24
39 | COC(=O)c1sccc1NC(=O)CC1C(=O)NCCN1C(=O)Nc1cc(Cl)ccc1OC (centres unmarked) | -12.9
40 | CC1CC(=O)Nc2ccccc2N1S(=O)(=O)c1cccs1 (centres unmarked) | 10.5
41 | COC(=O)CN(c1cccc(OC)c1)S(C)(=O)=O | 10.4
42 | N#C/C(=C\c1cccnc1)C(=O)Nc1ccc(Cl)cc1 | 7.07
43 | Nc1ccc(S(=O)(=O)C(F)(F)F)cc1N | 2.62
44 | O=C(c1ccccc1)c1cccc(NC(=O)c2ccco2)c1 | -48.6

Row | Structure (SMILES) | hERG current change (%, negative = inhibition) at 10uM [%]
45 | N#Cc1nc(-c2cccs2)oc1NCc1ccco1 | -5.22
46 | Cc1cc(C)c2nc(-c3cccnc3)cc(C(=O)Nc3ccc(S(=O)(=O)Nc4onc(C)c4C)cc3)c2c1 | 22.9
47 | O=C(O)CCCCCCCC(=O)O | 25.5
48 | Fc1cccc2sc(Nc3nnc(-c4ccco4)o3)nc12 | 37.9
49 | Cc1nonc1C1CCCN1C(=O)c1cc(COc2ccc(F)cc2F)on1 (centres unmarked) | 9.53
50 | Cc1cc(C)n(-c2ccc(C(=O)OCC(=O)c3c(N)n(C)c(=O)n(C)c3=O)cc2)n1 | -8.33
51 | COC(=O)[C@@H]1CCCN1C(=O)c1cc(COc2cccc3cccnc23)on1 | 10.6
52 | O=C(O)c1nn(CCOc2ccc(Cl)cc2Cl)c(=O)c2ccccc12 | 23.7
53 | Cc1cccc(C2c3[nH]c4ccccc4c3CCN2C(=O)Cc2n[nH]c(C)n2)n1 (centres unmarked) | 5.57
54 | CC1(C)CC(C(CC(=O)O)c2ccccc2)CCO1 (centres unmarked) | 28.9
55 | Cc1cc(C(=O)OCc2nc3ccccc3s2)c(C)o1 | 3.9
56 | O=C(Cc1nn[nH]n1)NCCC1=CCCCC1 | 6.92
57 | N/N=C(\c1ccccc1)C12CN3CN(CN(C3)C1)C2 | 7.98
58 | CC1(C)C(=O)OC(c2cccn2-c2ccc([N+](=O)[O-])cc2)C2(CCCCC2)C1=O (centres unmarked) | 11.7
59 | Cl.NS(=O)(=O)c1cccc(NC(=O)c2cc(-c3cccs3)nc3ccccc23)c1 | 8.4
60 | NC(=O)N1CCC2(CC1)NC(=O)N(c1ccccc1)N2 | 11.9
61 | CC1SCC(NC(=O)c2ccc(Cl)cc2)CS1 (centres unmarked) | -0.992
62 | CCOc1ccc(CN2CCN(CC(O)Cn3c4ccccc4c4ccccc43)CC2)cc1 (centres unmarked) | -70.9
63 | NS(=O)(=O)c1ccc(CNC(=O)/C=C/c2ccccc2)cc1 | 9.02
64 | CCC(=O)Oc1ccc2ccccc2c1CNC(=O)c1ccccc1 | -16.7
65 | CCOC(=O)c1[nH]c2ccccc2c1NC(=O)c1ccc(S(=O)(=O)N(C)C)cc1 | -0.44
66 | COc1ccccc1-c1nc2n(n1)C(c1ccccc1Cl)C(C(N)=O)=C(C)N2 (centres unmarked) | -5.7

Row | Structure (SMILES) | hERG current change (%, negative = inhibition) at 10uM [%]
67 | Cc1nnc(C)n1/N=C/c1cccc([N+](=O)[O-])c1 | 7.89
68 | CC1=C(C(=O)Nc2cccc(C(=O)N3CCC(C(N)=O)CC3)c2)SCCO1 | 20.1
69 | CCCCN(C(=O)c1c(C)noc1C)c1c(N)n(CCCC)c(=O)[nH]c1=O | 8.77
70 | CC(=O)NCc1ccc(-c2nc3ccccc3s2)cc1 | -9.06
71 | CN1C(=O)[C@H]2[C@@H](/C=C/c3ccccc3)N3C(=O)CN(CCO)C(=O)[C@@]3(Cc3ccccc3)[C@H]2C1=O | 0.734
72 | O=C(NC1CCCCC1)C(c1ccc2ncccc2c1)N(Cc1ccccc1)C(=O)c1ccc2c(c1)OCCO2 (centres unmarked) | -29.4
73 | COC(=O)c1ccc(-n2nnnc2SCC(=O)Nc2ccccc2F)cc1 | 16.2
74 | COc1ccc(NC(=O)CSc2nc(C)cc(C)n2)cc1 | 5.07
75 | CC(C)c1onc(C(=O)N2CCCCC2)c1[N+](=O)[O-] | 0.205
76 | COc1ccc(NS(=O)(=O)c2ccc(O)c(C(=O)OCC(=O)Nc3ccc4c(c3)OCCO4)c2)cc1 | 21.3
77 | CC(=O)c1ccc(C(=O)Nc2ccc3c(c2)C(=O)NC3=O)cc1 | 18
78 | O=C(NC1CCCCC1)N(Cc1cc2cc3c(cc2[nH]c1=O)OCCO3)C1CCCCC1 | -10.7
79 | CCCNC(=O)COC(=O)/C(C#N)=C/c1cc(C)n(CCC)c1C | 5.72
80 | CNC(=O)c1sccc1Oc1ccc(F)cc1[N+](=O)[O-] | 20.5
81 | COc1ccc(-c2ccoc2)cc1[C@H]1[C@H]2C=CC[C@@H](C)[C@@H]2C(=O)N1Cc1ccccc1 | 1.85
82 | CCCCSc1nc(C)nc2c1c(=O)n(C)c(=O)n2C | 3.49
83 | CN(c1ccccc1)S(=O)(=O)c1ccc(Cl)c(C(=O)Nc2ccc(N3CCOCC3)cc2)c1 | -18.3
84 | C/C=C1/CN2C3CC1C(CO)(C(=O)OC)C2Cc1c3n(C)c2ccccc12 (centres unmarked) | -10.6
85 | COc1cc(OC)c(C(=O)N(CCc2ccccc2)Cc2ccccc2)cc1OC | -12.6
86 | COc1ccc(OC)c(S(=O)(=O)N/N=C(/C)c2ccc3c(c2)OCO3)c1 | -4.29
